# From article PMC10726135
# The list shows a part of the results. At the low end of the ranking, values are background and their order means little. The protein was read in a cell extract, so binding may be indirect.
# Target: T1, HNF4alpha8 (COS-7 nuclear extract) (UniProt P41235-5)
# T1 sequence: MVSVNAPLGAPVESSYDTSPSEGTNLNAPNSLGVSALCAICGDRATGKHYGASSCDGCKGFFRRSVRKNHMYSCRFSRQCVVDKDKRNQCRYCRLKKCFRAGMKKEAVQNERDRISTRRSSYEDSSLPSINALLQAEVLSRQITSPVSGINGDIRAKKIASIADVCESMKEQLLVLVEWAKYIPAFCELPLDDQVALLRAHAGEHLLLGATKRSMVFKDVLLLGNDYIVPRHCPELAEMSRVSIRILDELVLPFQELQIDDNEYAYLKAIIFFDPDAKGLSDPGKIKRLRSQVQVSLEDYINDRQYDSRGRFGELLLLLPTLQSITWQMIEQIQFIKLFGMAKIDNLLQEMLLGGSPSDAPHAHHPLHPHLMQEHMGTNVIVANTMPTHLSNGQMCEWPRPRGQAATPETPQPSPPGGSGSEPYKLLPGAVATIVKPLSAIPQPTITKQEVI
# Experiment: protein-binding microarray
# Settings: COS-7 nuclear extract on double-stranded Agilent 4x180k PBM; binding buffer, salt, pH and temperature not given; high values mean tight binding; double strand, one strand shown; sequences stand for … in …GCCTAGGGAGATTAGAGTATCGGTCGA
row,Sequence,binding signal (log2 normalized intensity)
1,TGGGAGATATATGAGGGGTGTAAACCTGGT,0.0482
2,TGAAGCTCTCTTTGTGAAATGGGACCCAAC,1.46
3,GGCGCTTATCTGAGCACACACTCACGGACC,-1.49
4,AGCCTCATCTGAGATAAGGCAAGTCCCTTC,-1.39
5,ACCCCCATTCTTCCTGGTATCAGAGTGGAG,1.16
6,GGAGATGAGTGGGTTCACTTTGAGCAAGAT,0.386
7,AAACTATGCATGCTGTGTGTGTGTGTGTGT,3.05
8,AGATAAGATAGCACCAGCCCATTAATCAAG,-1.22
9,CAGCGCTTTGGTAGGCTGTATGGCTGCACA,-1.32
10,AAGCTTGGTATGCTTAAGTGGCTCACCCAA,-1.19
11,ACCCAAATCAAAGTAACAAGAGGCAAAGGC,-1.29
12,CTAAATTAGATATGGCTTATACTTGAGGTA,-0.932
13,CCCGAGTGAGGCAATGCCTCGCCCTGCTTC,-1.33
14,GACACCAGGGAACACACCATGTACAGAGAG,-1.3
15,GAATGAAACGGATGCAAAGGCTGAGCCCTT,-1.34
16,ATCATTGTGCAACCTGGACATTGGCTGATA,2.57
17,AGGTGTTTCAGATGGACCAAAGGTCTTGTA,3.58
18,CACTGATAAGTCTGCTTGCCATTAATGAAA,-1.06
19,GACCTGTCTTCCTGGTGACCTTTGTTTGGT,5.66
20,AACAAGTAAAATGAGCAAACAGAACTGTTA,-1.39
21,AGGAATGTTCATTCATTCACCTTTCGCCCT,3.68
22,TGGCCTTGCTTTTCACAGTCGATCTTTGAC,2.98
23,TCTTTTCTAAGACATAACACAGGTGACCTT,4.48
24,TCCTTTCCTCCTATGTCAATAGAGCATGAG,-0.106
25,TAAGGTGTTGAAAAGAGCATAAGGTTTCCA,-1.28

row,Sequence,binding signal (log2 normalized intensity)
1,AAGCAAACAAAACACGGACTTTGAAGCTCC,3
2,GTCAATAGTTGTGTAAATAGCTCAGGGACT,-1.3
3,GTCCACACATTCCTAGACCTTTGACCTTTA,8.88
4,AATCTGCATCCCCAAGCTGTTATTCCAGGC,2.02
5,AGGTCAAAATATCTGATCGATATCCTAACC,0.179
6,TGCTGGTCAGGAGACTGCTCGGCATCCCTG,-1.31
7,AGAGGTCGTGTCTCCATTCAGCATTGCTTG,-0.914
8,GGGGGGAGACAACTGCAACAGGAGGACCTC,-1.32
9,CTCGAGATAACCCACCTCCGGCCGGGAAGA,0.392
10,GAAAGGAAGATGCACATTCCCTCCAGCAGG,-1.32
11,CAGCTGCAGGTGTGGGGGCGGCAGGAGCCA,-1.25
12,CAGGAATGCCTTTTCTTTCATGTTGTTTAG,1.7
13,ATAAGGGAGTTTCAGAGGACTGCCCAGCTG,-1.26
14,CTGGTTGACACTCGAGGATCAGAGACACGA,-1.32
15,TACTGTCTTTTTGCCACTAGGGGTCACTGT,4.57
16,AGACAACCTGGGTGTAGGTGCTGCACCTTG,1.21
17,CAAGGGCAACTCTAATAGCACAGATCACAT,-0.972
18,AATGGATCCACTCAGTATGGCAACCTTTGT,4.13
19,GAGCTCCTTGTGAGCAGGATTATAGTTTAT,0.267
20,ACAGTTAGAAGTACTAGATTTGGAACTCAG,-0.00311
21,CAGGGTTCACATAGCCACCAGGGCCTCTGA,-1.33
22,CTTGGCACTTAGCACAAGTGACTATTCTGG,0.0244
23,CAAGGCCTACCTTGGGTTCTCACTATCACC,-0.925
24,TAAAGTCACAAAGGTGGAACTCAAGATAGT,-0.957
25,GTGTGTATGAAAGGCCACCAGGTGGAGTCT,0.964

row,Sequence,binding signal (log2 normalized intensity)
1,AGGTACTGGTAGCCTGGGCCCCAGGGGACG,-0.625
2,CTTTCCTAGACGTAAGACAACATCTGGTGT,1.14
3,TCCCTATGTTGTCCCTGCCCTTTGTCCAGG,4.72
4,AAATCCAAAGGGCATCAGCCCCAATGGCTA,-0.66
5,GAGATAACTGGGGGCATAGCCCATGCAAAT,-1.32
6,GTGAGATGGCTCAGCCTGGCTGTGTAGACA,-1.39
7,CGGGAGGGAGAGAAGGACATCTATCATTTT,-1.32
8,TTTTGTTTAGGAAGAGATCAAAGTTCTGTT,3.66
9,GACATCTGGAAATGTTTGTAGGGACTTTGA,5.1
10,CCTGCCGGCGGCGCAGACGGCGGATCCTCC,-1.37
11,TACGTTTCTTTCATGTCATAGTAAATCCAC,1.03
12,ACAGATAAACCCCTGGAGCACAGAAGGAGG,-1.41
13,TAACTCCTTTGTGTGAATCGACCTTTAGCA,6.42
14,CTTCCAGTATCTTAGCCAAAGAGAAGCCTA,-1.31
15,TGGACATTGGCCCTTTGACCTTTAATCAAG,7.21
16,CCACCGTGGTGTAGAGGCCCTGCAGGGCCC,-1.24
17,ATCTACCCTTGACAATTCCTATTCATTCCC,0.122
18,CTTCCTGAATGCCTAGGTGACAAGGAAAAC,-1.2
19,AGAGGAGGGGGCAGGAGCCCAAGAAGCGTC,-1.29
20,AGGCCACTCCTGATAGCTAGAGAGTTCAAG,0.377
21,ACCTTTATCTGATCAGAAATGTTTGGAATT,1.84
22,CCCCTGCATGAACCTTTGCTCCCTGGGAAC,4.71
23,CTGCCTCCCTGTCAGCTTCACTGATAGCGA,-1.42
24,CTGTTTACCCACTTGGGGTTCTTGGATCCT,1.19
25,AAGTCTCAGAAGCTGGGAGACCACTGGTGT,0.192

row,Sequence,binding signal (log2 normalized intensity)
1,TTATCTCCAAGACCCTTCATAGCTTACTTG,-0.778
2,TTTGCCCCACTCTCCTCTGCCACTGTATCA,2.88
3,ATGGTGTTTGCTTTGTGAAGGCTTATCTGC,0.591
4,CTCGGCCTCATGGGCGATCCCGAAAGCCGG,-1.42
5,ACCCCTGATCTACAAGGTCCATAAAACCAG,0.423
6,GGTCCGCAGGGCTGCCTCGCTTCCGGGTGG,-1.34
7,GCAGGTTCTCAGAAACGCCTGGCGCTTATC,-1.25
8,CCCCCGCAACTATTTATGAGTCTTGGGAAT,0.709
9,CACAAACATTCCAGTGGTCCCTGGAGATAA,-1.21
10,TTTTGCCTCCGCTCCGCCGGACCGGCCAAA,-1.25
11,AAAGATTCTTAGAGAGTTGGGCAAGACTCG,-1.32
12,CATACCAGGTGTAAAGTCTGGCATACAGGG,0.00259
13,AGGGCAAAGGTTAGCTTGGACAGAGTTTGT,4.13
14,GGATGGGGCCTGGGAGATAAGGGTTCAGAT,1.1
15,ATAAGGTAGGCACGTAAATAAGGATAAAGT,-1.13
16,TCAATGATACCATCAGATACCTACTCTGCT,-1.34
17,AGTTGAGATTTATTCCCAGGTTCCAAAGGT,2.89
18,AGCTCCTGGGCCAAAGGGCATTCTGGAGTT,3.41
19,AGTGGGGTGGGGGCGAGAGAGTTCTATGGG,-1.23
20,GGGACGCGACCTCCGGGAAAGCTATCCCGG,-1.33
21,TGGTTTATCTGTTGTCAAACCCACATTCTT,0.308
22,GATGGCAGCTTCATTCCAGCCCCATTCTGT,0.145
23,GGTGAGTCTTTGCCCCTGGACTTTGAATTT,5.75
24,AATTTTCTCTGTATACTTGTCTTATCAGCA,0.594
25,TCTGTTTGATTCCATGCTGATAATGGAATT,1.8

row,Sequence,binding signal (log2 normalized intensity)
1,AAGGTTAAGCCATTGGGCAATCCAATGTCT,-1.13
2,TTCAAAGGTTAAGACTTTGAATCAGTAAAT,1.36
3,GTATTGCTCAATGTCAAACACACTGTAACA,-1.35
4,GATGTGGAAATCTGGACTCAGCAGAACTTT,2
5,AGACAGTCACTCCCACCCTTCCTGTTATGT,2.04
6,TTGGTGGAATCTGAACTTTTGGCTCCCTGG,1.94
7,CATCATGCCCTTTGGCCCCCAGAGCCCCGT,6.64
8,TGGATGTTGAACCTCTGTCCTTGGCCTCAC,2.44
9,TTCTTCCCTCACTTACATCCTCAGGTAAAG,1.5
10,TGGAGGGCAGTGGATGGGGGCGTTCCCCGA,0.534
11,ATTGTGATTCCTGTGATACCTTCTTTGCCT,0.781
12,AGAGCTCAGAAGCCACCAGTGCAAATATAA,-1.44
13,TGCATCAGTGCTGACCTACCTGACCTGGCA,2.13
14,AAACTTCACAATGGGCCCCAGTAAAAACAG,-1.27
15,CTTTTGAGTTTCTACCATAGACCCTGTTGG,0.898
16,ACTTAGCCCTTGTCTTCCTCTCTGAAGGAT,0.709
17,GTGTGTCAACAGAGTGCTTAATCTCTGCTC,0.938
18,CACATGGCCGTAAAGATAAGAACGCTAGAC,-1.38
19,ATTAACCCTTTAGTGCCTGGATCTTGGAAC,2.04
20,GAAAACCCGGAGCGGAGCATCCCTCGGGCC,-1.31
21,TGTGCCTCTTAGTGAAGGATGGGGACCTTG,1.41
22,AGAGAGTCTGGCTGACTAACAAGCTGCCAA,-1.3
23,ATCCAGAGTGGGACAAAGTTCCCCGGGCAG,-0.66
24,AATGTACAAAGGTCAACGGCACAAGGAGAT,5.27
25,TTCCACAAGGTCCCATGGCTAATCTGTGAC,-0.0962

row,Sequence,binding signal (log2 normalized intensity)
1,TCAAATCTAAACCTAGCAGCCTGCCACCCA,-1.22
2,GATAAGATTTTAGAAGTCACTCCTTCCTCA,-1.35
3,GAGTGGGACAAAGTTCCCCGGGCAGCTGTG,0.567
4,TCAGAGGAATGTCTGACCAACCTGTCCAAA,-0.555
5,CGCCCGCGCTGCTCGCAAGCAGAACCTTGG,-1.42
6,CCACTGGAGTCTTGTTTGTCAAGTTTGGTA,1.71
7,TCTTGGCCAACAACTAGGGCAAAGGTTAGC,5.45
8,TATCTCACTCCCACACTGGTAACCTTTAGT,2.55
9,AAGGAGAACTGAGTAGGAGAATGTTAATGA,-1.25
10,GAGGCAGCAAGGTCAAAGTGCGTCCTGTGG,4.65
11,GGCTGATGTCTTTCTGGCTGGAGAGGAGGT,0.3
12,CTGGGTGGGGATAAGAAAAGATCAAGGGCA,-0.912
13,ACTGGTTTCTTGTCTGCCCCAGGGCTTTGC,1.67
14,TCTCTTATAGGTGTTTATAAAGTTGGGAAA,1.13
15,GCAACTACAAGGAGCAGCCTAGTAAAAGGT,-1.31
16,AGAAAATGTGCCCTTTGGACAGAAATATCA,5
17,GAGAGTATGGGATGATCAGTAAGGAGAGGG,-1.36
18,AAGCAAGCCCTATTAGGCATTTCATTTGCC,-1.28
19,GATGTAATAGGGTGACAGTATCAAAGTCCC,3.05
20,GGAGCAAAGGTTGGGGGTGGGGAGGAAGCA,-1.32
